# Measured values reported in the supplement of paper PMC8728848.
# This is one part of the list.
# B1: RS2L (Ralstonia solanacearum), B5RXL5_RALSO (protein)
# chain: MAQQGVFTLPANTSFGVTAFANAANTQTIQVLVDNVVKATFTGSGTSDKLLGSQVLNSGSGAIKIQVSVNGKPSDLVSNQTILANKLNFAMVGSEDGTDNDYNDGIAVLNWPLG
# Experiments:
# Experiment in all cases: glycan array binding signal (z-score within array); higher = stronger binding
# Details in all cases: glycan notation: IUPAC condensed, linker removed
# GalNAc(b1-6)GalNAc = biological target: GalNAc(b1-6)GalNAc
# Summary of the method: (§1)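 Columns mapping to the same glycan were averaged after glycan names were converted to IUPAC-condensed notation. The data come from 3228 arrays in the Consortium for Functional Glycomics database, limited to those with an available protein sequence. Binding is reported as a within-array Z-score averaged across arrays of one protein sequence and across linkers.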
# Glc(a1-4)Glc = biological target: Glc(a1-4)Glc
# Summary of the method: as §1
# [1] = biological target: Glc(a1-4)Glc(a1-4)Glc(a1-4)Glc
# Summary of the method: as §1
# Glc(a1-6)Glc(a1-6)Glc = biological target: Glc(a1-6)Glc(a1-6)Glc
# Summary of the method: as §1
# [2] = biological target: Glc(a1-6)Glc(a1-6)Glc(a1-6)Glc
# Summary of the method: as §1
# Glc(b1-4)Glc = biological target: Glc(b1-4)Glc
# Summary of the method: as §1
# Glc(b1-6)Glc = biological target: Glc(b1-6)Glc
# Summary of the method: as §1
# GlcA(b1-3)Gal = biological target: GlcA(b1-3)Gal
# Summary of the method: as §1
# GlcA(b1-3)GlcNAc = biological target: GlcA(b1-3)GlcNAc
# Summary of the method: as §1
# GlcA(b1-6)Gal = biological target: GlcA(b1-6)Gal
# Summary of the method: as §1
# [3] = biological target: GlcNAc(a1-3)Gal(b1-4)GlcNAc
# Summary of the method: as §1
# [4] = biological target: GlcNAc(a1-4)Gal(b1-3)GlcNAc
# Summary of the method: as §1
# [5] = biological target: GlcNAc(a1-4)Gal(b1-4)GalNAc
# Summary of the method: as §1
# [6] = biological target: GlcNAc(a1-4)Gal(b1-4)GlcNAc
# Summary of the method: as §1
# [7] = biological target: GlcNAc(a1-4)Gal(b1-4)GlcNAc(b1-3)Gal(b1-4)Glc
# Summary of the method: as §1
# [8] = biological target: GlcNAc(a1-4)Gal(b1-4)GlcNAc(b1-3)Gal(b1-4)GlcNAc
# Summary of the method: as §1
# [9] = biological target: GlcNAc(a1-4)Gal(b1-4)GlcNAc(b1-3)Gal(b1-4)GlcNAc(b1-3)Gal(b1-4)GlcNAc
# Summary of the method: as §1
# [10] = biological target: GlcNAc(a1-4)Gal(b1-4)GlcNAc(b1-3)Gal(b1-4)[Fuc(a1-3)]GlcNAc(b1-3)Gal(b1-4)[Fuc(a1-3)]GlcNAc
# Summary of the method: as §1
# [11] = biological target: GlcNAc(a1-6)Gal(b1-4)GlcNAc
# Summary of the method: as §1
# [12] = biological target: GlcNAc(b1-2)Gal(b1-3)GalNAc
# Summary of the method: as §1
# [13] = biological target: GlcNAc(b1-2)Man(a1-3)[GlcNAc(b1-2)Man(a1-6)]Man(b1-4)GlcNAc(b1-4)GlcNAc
# Summary of the method: as §1
# [14] = biological target: GlcNAc(b1-2)Man(a1-3)[GlcNAc(b1-2)Man(a1-6)]Man(b1-4)GlcNAc(b1-4)[Fuc(a1-6)]GlcNAc
# Summary of the method: as §1
# [15] = biological target: GlcNAc(b1-2)Man(a1-3)[GlcNAc(b1-4)][GlcNAc(b1-2)Man(a1-6)]Man(b1-4)GlcNAc(b1-4)GlcNAc
# Summary of the method: as §1
# [16] = biological target: GlcNAc(b1-2)[GlcNAc(b1-4)]Man(a1-3)[GlcNAc(b1-2)Man(a1-6)]Man(b1-4)GlcNAc(b1-4)GlcNAc
# Summary of the method: as §1
# [17] = biological target: GlcNAc(b1-2)[GlcNAc(b1-4)]Man(a1-3)[GlcNAc(b1-4)][GlcNAc(b1-2)Man(a1-6)]Man(b1-4)GlcNAc(b1-4)GlcNAc
# Summary of the method: as §1
# [18] = biological target: GlcNAc(b1-2)[GlcNAc(b1-4)]Man(a1-3)[GlcNAc(b1-4)][GlcNAc(b1-2)[GlcNAc(b1-6)]Man(a1-6)]Man(b1-4)GlcNAc(b1-4)GlcNAc
# Summary of the method: as §1
# [19] = biological target: GlcNAc(b1-2)[GlcNAc(b1-6)]Man(a1-6)[GlcNAc(b1-2)Man(a1-3)]Man(b1-4)GlcNAc(b1-4)GlcNAc
# Summary of the method: as §1
# [20] = biological target: GlcNAc(b1-2)[GlcNAc(b1-6)]Man(a1-6)[GlcNAc(b1-2)Man(a1-3)][GlcNAc(b1-4)]Man(b1-4)GlcNAc(b1-4)GlcNAc
# Summary of the method: as §1
# GlcNAc(b1-3)Gal = biological target: GlcNAc(b1-3)Gal
# Summary of the method: as §1
# [21] = biological target: GlcNAc(b1-3)Gal(b1-3)GalNAc
# Summary of the method: as §1
# GlcNAc(b1-3)Gal(b1-4)Glc = biological target: GlcNAc(b1-3)Gal(b1-4)Glc
# Summary of the method: as §1
# [22] = biological target: GlcNAc(b1-3)Gal(b1-4)GlcNAc
# Summary of the method: as §1
# [23] = biological target: GlcNAc(b1-3)Gal(b1-4)GlcNAc(b1-3)Gal(b1-4)GlcNAc
# Summary of the method: as §1
# GlcNAc(b1-3)GalNAc = biological target: GlcNAc(b1-3)GalNAc
# Summary of the method: as §1
# GlcNAc(b1-3)Man = biological target: GlcNAc(b1-3)Man
# Summary of the method: as §1
# [24] = biological target: GlcNAc(b1-3)[GlcNAc(b1-4)][GlcNAc(b1-6)]GlcNAc
# Summary of the method: as §1
# [25] = biological target: GlcNAc(b1-3)[GlcNAc(b1-6)]Gal(b1-4)GlcNAc
# Summary of the method: as §1
# [26] = biological target: GlcNAc(b1-3)[GlcNAc(b1-6)]GalNAc
# Summary of the method: as §1
# [27] = biological target: GlcNAc(b1-4)Gal(b1-4)GlcNAc
# Summary of the method: as §1
# GlcNAc(b1-4)GlcNAc = biological target: GlcNAc(b1-4)GlcNAc
# Summary of the method: as §1
# [28] = biological target: GlcNAc(b1-4)GlcNAc(b1-4)GlcNAc
# Summary of the method: as §1
# [29] = biological target: GlcNAc(b1-4)GlcNAc(b1-4)GlcNAc(b1-4)GlcNAc(b1-4)GlcNAc
# Summary of the method: as §1
# [30] = biological target: GlcNAc(b1-4)GlcNAc(b1-4)GlcNAc(b1-4)GlcNAc(b1-4)GlcNAc(b1-4)GlcNAc
# Summary of the method: as §1
# [31] = biological target: GlcNAc(b1-4)[GlcNAc(b1-6)]GalNAc
# Summary of the method: as §1
# [32] = biological target: GlcNAc(b1-6)Gal(b1-4)GlcNAc
# Summary of the method: as §1
binder,measurement,setting,value
B1,glycan array binding signal (z-score),GalNAc(b1-6)GalNAc,-0.243
same,glycan array binding signal (z-score),Glc(a1-4)Glc,-0.251
same,glycan array binding signal (z-score),[1],-0.244
same,glycan array binding signal (z-score),Glc(a1-6)Glc(a1-6)Glc,-0.246
same,glycan array binding signal (z-score),[2],-0.243
same,glycan array binding signal (z-score),Glc(b1-4)Glc,-0.251
same,glycan array binding signal (z-score),Glc(b1-6)Glc,-0.256
same,glycan array binding signal (z-score),GlcA(b1-3)Gal,-0.251
same,glycan array binding signal (z-score),GlcA(b1-3)GlcNAc,-0.242
same,glycan array binding signal (z-score),GlcA(b1-6)Gal,-0.254
same,glycan array binding signal (z-score),[3],-0.237
same,glycan array binding signal (z-score),[4],-0.249
same,glycan array binding signal (z-score),[5],-0.242
same,glycan array binding signal (z-score),[6],-0.247
same,glycan array binding signal (z-score),[7],-0.241
same,glycan array binding signal (z-score),[8],-0.159
same,glycan array binding signal (z-score),[9],-0.229
same,glycan array binding signal (z-score),[10],-0.12
same,glycan array binding signal (z-score),[11],-0.232
same,glycan array binding signal (z-score),[12],-0.247
same,glycan array binding signal (z-score),[13],-0.242
same,glycan array binding signal (z-score),[14],-0.193
same,glycan array binding signal (z-score),[15],-0.232
same,glycan array binding signal (z-score),[16],-0.194
same,glycan array binding signal (z-score),[17],-0.243
same,glycan array binding signal (z-score),[18],-0.242
same,glycan array binding signal (z-score),[19],-0.187
same,glycan array binding signal (z-score),[20],-0.223
same,glycan array binding signal (z-score),GlcNAc(b1-3)Gal,-0.254
same,glycan array binding signal (z-score),[21],-0.245
same,glycan array binding signal (z-score),GlcNAc(b1-3)Gal(b1-4)Glc,-0.244
same,glycan array binding signal (z-score),[22],-0.241
same,glycan array binding signal (z-score),[23],-0.245
same,glycan array binding signal (z-score),GlcNAc(b1-3)GalNAc,-0.249
same,glycan array binding signal (z-score),GlcNAc(b1-3)Man,-0.251
same,glycan array binding signal (z-score),[24],-0.247
same,glycan array binding signal (z-score),[25],-0.245
same,glycan array binding signal (z-score),[26],-0.247
same,glycan array binding signal (z-score),[27],-0.24
same,glycan array binding signal (z-score),GlcNAc(b1-4)GlcNAc,-0.244
same,glycan array binding signal (z-score),[28],-0.243
same,glycan array binding signal (z-score),[29],-0.247
same,glycan array binding signal (z-score),[30],-0.248
same,glycan array binding signal (z-score),[31],-0.243
same,glycan array binding signal (z-score),[32],-0.247
